The values that follow come from PubChem BioAssay (NCI).

The structures appear in SMILES notation.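 Where inhibition never reached the appropriate level, the endpoint shown equals the highest concentration tested. Otherwise, values were interpolated linearly from a five-concentration, 48-hour dose response in 96-well plates. Abbreviation: GI50, concentration required for 50% inhibition of growth.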 Certain results were filed several times, with different values. The list is limited to them. There may be further records. Values that stand side by side are repeats (runs, samples, wells, individuals or studies). Records carry a tag for their origin. The letters are not those of the source and start again with each entry.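 The concentration for full growth arrest is given as TGI.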 Where only a bound is given, the exact number is not on record here.

Some test systems named below: HL-60(TB) leukemia; SK-MEL-5 melanoma; CCRF-CEM leukemia; SR leukemia.
Holding throughout (assay): growth of human tumour cells (NCI), 48 h

Turning to `COC(=O)/C=C/c1cc(OC)c2c(c1)C(C(=O)OC)C(c1ccc(O)c(OC)c1)O2` (centres undefined), the TGI was 3.81 µM [sample A, mean of 2 tests] and > 100 µM [sample B, mean of 2 tests] and 3.81 µM [sample C, mean of 2 tests] with HL-60(TB) leukemia; > 100 µM [sample A] and 19.8 µM [sample B] and 9.12 µM [sample C] with SK-MEL-5 melanoma; > 100 µM [sample A, mean of 2 tests] and > 100 µM [sample B, mean of 2 tests] and 9.51 µM [sample C, mean of 3 tests] in the assay on CCRF-CEM leukemia. Further, in the assay on SR leukemia, the GI50 is 2.03 µM [sample A, mean of 2 tests] and 6.66 µM [sample B, 1 test] and 284 nM [sample C, mean of 2 tests].
